This is one part of the list. The list includes weakly bound sequences.
target: T1, MBP-FoxP3dN (UniProt Q99JB6); experiment: PD-seq (MBP pull-down with sequencing); settings: 20 mM Tris-HCl pH 7.5, 100 mM NaCl, 1.5 mM MgCl2, 0.4 uM protein, 0.1 uM dsDNA library, 30 min, room temperature, amylose pull-down; high values mean tight binding; double strand, one strand shown
T1 sequence: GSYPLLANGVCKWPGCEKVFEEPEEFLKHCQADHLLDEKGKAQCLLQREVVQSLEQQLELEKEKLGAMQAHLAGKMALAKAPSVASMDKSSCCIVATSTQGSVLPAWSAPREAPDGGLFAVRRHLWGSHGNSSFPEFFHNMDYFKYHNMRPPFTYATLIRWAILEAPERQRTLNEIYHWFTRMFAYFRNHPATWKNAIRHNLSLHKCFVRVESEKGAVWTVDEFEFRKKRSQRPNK

With “GATGATTGTTCTCCCAGCTGATGAATTCTAATAATCGAGTAAACAAATTTTCCTAATCTTTCTGTTCAAGCGCCATCTAC” as the sequence, how does the binding signal (RPM ratio (pull-down/input)) read?
Its binding signal (RPM ratio (pull-down/input)) is 0.331.

For “GATGATTGTTCTCCCAGCTGATGAATTTCTCAGGTCGAGTAAACAAATTTTCCTAATCTTTCTGTTCAAGCGCCATCTAC”, which binding signal (RPM ratio (pull-down/input)) is on record?
The binding signal (RPM ratio (pull-down/input)) was 0.172.

For “GATGATTGTTCTCCCAGCTGATGAATTTAGAGCATCGAGTAAACAAATTTTCCTAATCTTTCTGTTCAAGCGCCATCTAC”, which binding signal (RPM ratio (pull-down/input)) is on record?
Its binding signal (RPM ratio (pull-down/input)) is 0.922.

For “GATGATTGTTCTCCCAGCTGATGAATTATAGGCGTCGAGTAAACAAATTTTCCTAATCTTTCTGTTCAAGCGCCATCTAC”, which binding signal (RPM ratio (pull-down/input)) is on record?
The binding signal (RPM ratio (pull-down/input)) was 0.633.

For “GATGATTGTTCTCCCAGCTGATGAATTAGACTCGTCGAGTAAACAAATTTTCCTAATCTTTCTGTTCAAGCGCCATCTAC”, which binding signal (RPM ratio (pull-down/input)) is on record?
Its binding signal (RPM ratio (pull-down/input)) is 0.388.

Which binding signal (RPM ratio (pull-down/input)) does the source give for “GATGATTGTTCTCCCAGCTGATGAATTTCGTCTTTCGAGTAAACAAATTTTCCTAATCTTTCTGTTCAAGCGCCATCTAC” here?
Its binding signal (RPM ratio (pull-down/input)) is 0.758.

Which binding signal (RPM ratio (pull-down/input)) does the source give for “GATGATTGTTCTCCCAGCTGATGAATTCCTACATTCGAGTAAACAAATTTTCCTAATCTTTCTGTTCAAGCGCCATCTAC” here?
The binding signal (RPM ratio (pull-down/input)) was 0.384.

How did the binding signal (RPM ratio (pull-down/input)) turn out when “GATGATTGTTCTCCCAGCTGATGAATTCAAAGGCTCGAGTAAACAAATTTTCCTAATCTTTCTGTTCAAGCGCCATCTAC” was run?
The binding signal (RPM ratio (pull-down/input)) was 0.281.

Which binding signal (RPM ratio (pull-down/input)) does the source give for “GATGATTGTTCTCCCAGCTGATGAATTTCACACGTCGAGTAAACAAATTTTCCTAATCTTTCTGTTCAAGCGCCATCTAC” here?
The binding signal (RPM ratio (pull-down/input)) was 0.317.

Which binding signal (RPM ratio (pull-down/input)) does the source give for “GATGATTGTTCTCCCAGCTGATGAATTATGGGAGTCGAGTAAACAAATTTTCCTAATCTTTCTGTTCAAGCGCCATCTAC” here?
Its binding signal (RPM ratio (pull-down/input)) is 0.328.

How did the binding signal (RPM ratio (pull-down/input)) turn out when “GATGATTGTTCTCCCAGCTGATGAATTTACGGCTTCGAGTAAACAAATTTTCCTAATCTTTCTGTTCAAGCGCCATCTAC” was run?
The binding signal (RPM ratio (pull-down/input)) was 0.597.

How did the binding signal (RPM ratio (pull-down/input)) turn out when “GATGATTGTTCTCCCAGCTGATGAATTGCCATCCTCGAGTAAACAAATTTTCCTAATCTTTCTGTTCAAGCGCCATCTAC” was run?
The binding signal (RPM ratio (pull-down/input)) was 0.935.

With “GATGATTGTTCTCCCAGCTGATGAATTAGTCAATTCGAGTAAACAAATTTTCCTAATCTTTCTGTTCAAGCGCCATCTAC” as the sequence, how does the binding signal (RPM ratio (pull-down/input)) read?
The binding signal (RPM ratio (pull-down/input)) was 0.607.

“GATGATTGTTCTCCCAGCTGATGAATTTTAGGCTTCGAGTAAACAAATTTTCCTAATCTTTCTGTTCAAGCGCCATCTAC” was tested. Which binding signal (RPM ratio (pull-down/input)) did it give?
Its binding signal (RPM ratio (pull-down/input)) is 0.367.

How did the binding signal (RPM ratio (pull-down/input)) turn out when “GATGATTGTTCTCCCAGCTGATGAATTTCACAGATCGAGTAAACAAATTTTCCTAATCTTTCTGTTCAAGCGCCATCTAC” was run?
The binding signal (RPM ratio (pull-down/input)) was 0.182.

“GATGATTGTTCTCCCAGCTGATGAATTACGAGAGTCGAGTAAACAAATTTTCCTAATCTTTCTGTTCAAGCGCCATCTAC” was tested. Which binding signal (RPM ratio (pull-down/input)) did it give?
Its binding signal (RPM ratio (pull-down/input)) is 0.329.

For “GATGATTGTTCTCCCAGCTGATGAATTAATGTCATCGAGTAAACAAATTTTCCTAATCTTTCTGTTCAAGCGCCATCTAC”, which binding signal (RPM ratio (pull-down/input)) is on record?
The binding signal (RPM ratio (pull-down/input)) was 0.999.

“GATGATTGTTCTCCCAGCTGATGAATTCTTTACTTCGAGTAAACAAATTTTCCTAATCTTTCTGTTCAAGCGCCATCTAC” was tested. Which binding signal (RPM ratio (pull-down/input)) did it give?
Its binding signal (RPM ratio (pull-down/input)) is 0.373.

Which binding signal (RPM ratio (pull-down/input)) does the source give for “GATGATTGTTCTCCCAGCTGATGAATTCTTTAGGTCGAGTAAACAAATTTTCCTAATCTTTCTGTTCAAGCGCCATCTAC” here?
The binding signal (RPM ratio (pull-down/input)) was 0.206.

With “GATGATTGTTCTCCCAGCTGATGAATTGAACGGGTCGAGTAAACAAATTTTCCTAATCTTTCTGTTCAAGCGCCATCTAC” as the sequence, how does the binding signal (RPM ratio (pull-down/input)) read?
The binding signal (RPM ratio (pull-down/input)) was 0.23.

Which binding signal (RPM ratio (pull-down/input)) does the source give for “GATGATTGTTCTCCCAGCTGATGAATTTCCATCTTCGAGTAAACAAATTTTCCTAATCTTTCTGTTCAAGCGCCATCTAC” here?
Its binding signal (RPM ratio (pull-down/input)) is 0.333.

How did the binding signal (RPM ratio (pull-down/input)) turn out when “GATGATTGTTCTCCCAGCTGATGAATTCGAGGACTCGAGTAAACAAATTTTCCTAATCTTTCTGTTCAAGCGCCATCTAC” was run?
Its binding signal (RPM ratio (pull-down/input)) is 0.271.

For “GATGATTGTTCTCCCAGCTGATGAATTAAGTGGTTCGAGTAAACAAATTTTCCTAATCTTTCTGTTCAAGCGCCATCTAC”, which binding signal (RPM ratio (pull-down/input)) is on record?
Its binding signal (RPM ratio (pull-down/input)) is 1.15.

Which binding signal (RPM ratio (pull-down/input)) does the source give for “GATGATTGTTCTCCCAGCTGATGAATTTACCCGATCGAGTAAACAAATTTTCCTAATCTTTCTGTTCAAGCGCCATCTAC” here?
Its binding signal (RPM ratio (pull-down/input)) is 0.288.

“GATGATTGTTCTCCCAGCTGATGAATTCCTCGTTTCGAGTAAACAAATTTTCCTAATCTTTCTGTTCAAGCGCCATCTAC” was tested. Which binding signal (RPM ratio (pull-down/input)) did it give?
Its binding signal (RPM ratio (pull-down/input)) is 0.296.

“GATGATTGTTCTCCCAGCTGATGAATTCAGCGTTTCGAGTAAACAAATTTTCCTAATCTTTCTGTTCAAGCGCCATCTAC” was tested. Which binding signal (RPM ratio (pull-down/input)) did it give?
Its binding signal (RPM ratio (pull-down/input)) is 2.92.

For “GATGATTGTTCTCCCAGCTGATGAATTAGCTCGATCGAGTAAACAAATTTTCCTAATCTTTCTGTTCAAGCGCCATCTAC”, which binding signal (RPM ratio (pull-down/input)) is on record?
Its binding signal (RPM ratio (pull-down/input)) is 0.234.

For “GATGATTGTTCTCCCAGCTGATGAATTTTGGGGCTCGAGTAAACAAATTTTCCTAATCTTTCTGTTCAAGCGCCATCTAC”, which binding signal (RPM ratio (pull-down/input)) is on record?
The binding signal (RPM ratio (pull-down/input)) was 0.319.

Which binding signal (RPM ratio (pull-down/input)) does the source give for “GATGATTGTTCTCCCAGCTGATGAATTACCTCGATCGAGTAAACAAATTTTCCTAATCTTTCTGTTCAAGCGCCATCTAC” here?
Its binding signal (RPM ratio (pull-down/input)) is 0.264.

For “GATGATTGTTCTCCCAGCTGATGAATTAATCGGATCGAGTAAACAAATTTTCCTAATCTTTCTGTTCAAGCGCCATCTAC”, which binding signal (RPM ratio (pull-down/input)) is on record?
Its binding signal (RPM ratio (pull-down/input)) is 0.206.

“GATGATTGTTCTCCCAGCTGATGAATTGTAGCAGTCGAGTAAACAAATTTTCCTAATCTTTCTGTTCAAGCGCCATCTAC” was tested. Which binding signal (RPM ratio (pull-down/input)) did it give?
Its binding signal (RPM ratio (pull-down/input)) is 0.722.

Which binding signal (RPM ratio (pull-down/input)) does the source give for “GATGATTGTTCTCCCAGCTGATGAATTCAGGTAATCGAGTAAACAAATTTTCCTAATCTTTCTGTTCAAGCGCCATCTAC” here?
The binding signal (RPM ratio (pull-down/input)) was 0.466.

For “GATGATTGTTCTCCCAGCTGATGAATTGCTAGGGTCGAGTAAACAAATTTTCCTAATCTTTCTGTTCAAGCGCCATCTAC”, which binding signal (RPM ratio (pull-down/input)) is on record?
The binding signal (RPM ratio (pull-down/input)) was 0.463.

For “GATGATTGTTCTCCCAGCTGATGAATTTAGTTGATCGAGTAAACAAATTTTCCTAATCTTTCTGTTCAAGCGCCATCTAC”, which binding signal (RPM ratio (pull-down/input)) is on record?
The binding signal (RPM ratio (pull-down/input)) was 3.09.

“GATGATTGTTCTCCCAGCTGATGAATTTCTATCGTCGAGTAAACAAATTTTCCTAATCTTTCTGTTCAAGCGCCATCTAC” was tested. Which binding signal (RPM ratio (pull-down/input)) did it give?
Its binding signal (RPM ratio (pull-down/input)) is 0.348.

How did the binding signal (RPM ratio (pull-down/input)) turn out when “GATGATTGTTCTCCCAGCTGATGAATTGGAAGAATCGAGTAAACAAATTTTCCTAATCTTTCTGTTCAAGCGCCATCTAC” was run?
Its binding signal (RPM ratio (pull-down/input)) is 0.188.

How did the binding signal (RPM ratio (pull-down/input)) turn out when “GATGATTGTTCTCCCAGCTGATGAATTGCTGCGCTCGAGTAAACAAATTTTCCTAATCTTTCTGTTCAAGCGCCATCTAC” was run?
The binding signal (RPM ratio (pull-down/input)) was 0.822.

For “GATGATTGTTCTCCCAGCTGATGAATTGCGGATCTCGAGTAAACAAATTTTCCTAATCTTTCTGTTCAAGCGCCATCTAC”, which binding signal (RPM ratio (pull-down/input)) is on record?
The binding signal (RPM ratio (pull-down/input)) was 0.645.

Which binding signal (RPM ratio (pull-down/input)) does the source give for “GATGATTGTTCTCCCAGCTGATGAATTTCAACGGTCGAGTAAACAAATTTTCCTAATCTTTCTGTTCAAGCGCCATCTAC” here?
Its binding signal (RPM ratio (pull-down/input)) is 0.241.

How did the binding signal (RPM ratio (pull-down/input)) turn out when “GATGATTGTTCTCCCAGCTGATGAATTGGAGTGATCGAGTAAACAAATTTTCCTAATCTTTCTGTTCAAGCGCCATCTAC” was run?
The binding signal (RPM ratio (pull-down/input)) was 0.46.

Reference: PMC12820563
